# ± gives the standard deviation of the averaged measurements. The full ranking holds about 4,100 sequences; the median of “relative kcat/Km (krel) vs genomic leader AAAGAU” is about 1.7, and the highest 2% start at about 6.5. Only a part is listed here, and it is no random draw.
# Target: T1, E. coli RNase P holoenzyme (M1 P RNA + rnpA protein) (UniProt P0A7Y8)
# T1 sequence: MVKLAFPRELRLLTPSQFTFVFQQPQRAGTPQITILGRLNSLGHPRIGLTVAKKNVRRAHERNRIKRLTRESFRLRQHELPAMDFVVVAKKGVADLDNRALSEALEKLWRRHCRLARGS
# Assay: relative kcat/Km (krel) vs genomic leader AAAGAU (relative (reference leader = 1)); higher = faster RNase P cleavage
# Summary of the method: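 A precursor tRNA-Met pool randomized at leader positions −6 to −1 was cleaved by E. coli RNase P holoenzyme (P RNA plus C5 protein) under multiple-turnover conditions at 37 °C in 50 mM Tris-HCl pH 8, 100 mM NaCl, 17.5 mM MgCl2. Unreacted precursor was gel-purified at ~5–30% conversion, converted to cDNA libraries and Illumina-sequenced. Relative kcat/Km (krel) was calculated by internal competition kinetics from read ratios, normalised to the genomic leader, averaging two technical replicates.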
# [1] = fraction of substrate reacted: ~26-29% (28.66% repeat 1, 26.4% repeat 2)
# [2] = fraction of substrate reacted: ~13-16% (15.68% repeat 1, 13.17% repeat 2)
# [3] = fraction of substrate reacted: ~9-10% (9.79% repeat 1, 9.1% repeat 2)
Sequence,relative kcat/Km [1],relative kcat/Km [2],relative kcat/Km [3]
CCTACG,1.4 ± 0.03,–,–
TCCGCG,2.73 ± 0.31,1.04 ± 0.41,–
GCTCGA,2.41 ± 0.12,1.93 ± 0.28,1.37 ± 1.2
AGTTGG,0.931 ± 0.14,0.447 ± 0.35,–
CTCACG,3.03 ± 0.6,1.25 ± 0.38,2.76 ± 2
TCCTCG,3.64 ± 0.61,2.52 ± 0.14,2.35 ± 1.9
ACGGTG,0.881 ± 0.76,–,–
ACGGAG,0.397 ± 0.16,–,–
ATATCG,1.87 ± 0.4,0.892 ± 0.52,1.74 ± 1.2
CCCTTT,5.02 ± 2,3.73 ± 1.1,2.73 ± 0.52
TGCACA,2.3 ± 1.5,1.91 ± 0.71,2.14 ± 0.62
CTGTTT,1.93 ± 0.28,1.06 ± 0.26,1.08 ± 0.27
AGCTCT,3 ± 0.56,2.09 ± 0.63,2.35 ± 1.9
ATTGCC,2.32 ± 0.36,2.18 ± 0.27,1.65 ± 0.57
GACACT,5.13 ± 1.9,3.63 ± 0.68,2.62 ± 1.4
GCACTT,1.83 ± 0.81,–,0.906 ± 0.68
CTTCCC,1.93 ± 0.53,1.5 ± 1.2,1.37 ± 0.18
ACAAAT,2.64 ± 0.98,1.41 ± 0.19,1.78 ± 0.91
TCGCAC,5.8 ± 2.9,4.12 ± 0.71,3.9 ± 0.6
AACAAG,3.26 ± 0.69,1.32 ± 0.57,–
CATAAC,4.32 ± 1.7,3.12 ± 0.21,3.11 ± 1.8
AAAGAT,1,1,1
CTTGCA,2.33 ± 1.2,1.54 ± 1.1,1.99 ± 0.26

Sequence,relative kcat/Km [1],relative kcat/Km [2],relative kcat/Km [3]
TTAAAC,3.61 ± 2,2.48 ± 1,1.82 ± 0.12
CCTTTC,3.08 ± 0.83,2.39 ± 0.27,2.13 ± 0.9
GCCCAC,5.93 ± 2.8,4.04 ± 1.6,3.04 ± 0.041
CCACTC,2.26 ± 0.068,1.48 ± 0.098,1.85 ± 1.1
ATGGGC,0.531 ± 0.1,–,–
GCAGTA,1.16 ± 0.17,–,–
ACAATT,1.96 ± 0.53,1.38 ± 0.4,1.58 ± 0.85
TCATGT,2.68 ± 2.2,–,–
TGCGCG,1.36 ± 0.13,–,0.601 ± 0.28
ACCCTA,3.23 ± 1.6,2.57 ± 0.8,2.06 ± 0.2
CGTTGA,5.86 ± 1.9,3.51 ± 1.2,2.87 ± 0.84
GATACT,2.46 ± 0.84,1.51 ± 0.24,1.05 ± 0.2
CACGTA,3.56 ± 1.4,2.23 ± 0.31,1.91 ± 1.1
AGGAGT,0.621 ± 0.6,–,–
TGCACT,1.68 ± 1,–,1.04 ± 0.036
TCATCT,4.09 ± 1,2.78 ± 0.36,2.18 ± 1.2
CTTCTT,3.45 ± 0.96,3.05 ± 0.55,2.75 ± 1.4
CATCAT,6.5 ± 2.4,4.73 ± 0.34,3.29 ± 1.9
GACGGC,1.75 ± 1.7,–,–
CGTATA,3.94 ± 1.5,2.75 ± 0.17,2.37 ± 0.34
CAAGCC,1.48 ± 0.25,1.2 ± 0.15,1.4 ± 1.1
CGTCTA,3.18 ± 0.97,1.72 ± 0.69,2.04 ± 0.68
GCTATG,1.51 ± 0.12,–,–

Sequence,relative kcat/Km [1],relative kcat/Km [2],relative kcat/Km [3]
AGGCAA,1.67 ± 0.96,1.73 ± 1,1.11 ± 0.12
ATGGTA,–,–,1.21 ± 0.78
GTCTTC,8.18 ± 3.4,5.61 ± 1.7,4.4 ± 1.6
GTAAAT,3.67 ± 1.6,2.38 ± 0.55,2.07 ± 1.7
CGCTTG,1.51 ± 0.34,–,–
CAAGGT,1.16 ± 0.52,–,–
GACAGC,5.59 ± 1.6,4.06 ± 0.54,3.44 ± 1
GACATG,2.54 ± 0.35,0.833 ± 0.46,–
CTGACA,1.82 ± 0.74,1.54 ± 0.31,1.9 ± 0.82
CTTGCT,0.634 ± 0.4,0.78 ± 0.34,1.48 ± 0.66
ATCACT,4.98 ± 2,3.58 ± 1.1,3 ± 0.43
GACGGG,0.48 ± 0.19,–,–
TGTTTT,4.79 ± 2.2,3.26 ± 0.74,2.55 ± 1.1
ATTAGG,1.02 ± 0.065,–,–
TTAAAA,3.66 ± 1.1,3.14 ± 0.18,3.19 ± 1.2
ACATAG,2.81 ± 0.35,1.51 ± 0.51,–
AGGCGA,1.62 ± 0.89,1.53 ± 0.42,1.75 ± 0.52
AGCTTC,4.01 ± 0.73,3.13 ± 0.044,3.01 ± 2.6
GCAGGT,2.27 ± 1.8,–,–
GATGCT,1.32 ± 0.42,0.597 ± 0.25,1.82 ± 1.3
GCCAAT,4.52 ± 2.3,2.75 ± 1.7,3.15 ± 0.068
ACACCG,0.502 ± 0.38,–,–
ACCGTG,0.821 ± 0.57,–,–

Sequence,relative kcat/Km [1],relative kcat/Km [2],relative kcat/Km [3]
TGGTCG,0.732 ± 0.22,–,0.453 ± 0.18
TTAGCT,1.43 ± 0.1,1.43 ± 0.17,2.11 ± 1.6
TAATGC,4.98 ± 2.8,3.62 ± 0.99,2.58 ± 0.24
ACCGTA,4.07 ± 1.4,2.54 ± 0.21,2.19 ± 0.39
CCACCG,1.08 ± 0.58,–,–
AAGCCG,0.539 ± 0.4,0.587 ± 0.34,–
GCACAA,1.63 ± 0.8,0.641 ± 0.061,–
CCAGAC,3.22 ± 0.77,2.1 ± 1.1,2.22 ± 0.29
ATGTAC,5.39 ± 2.7,3.81 ± 0.94,3.03 ± 0.37
TAGCTT,2.8 ± 1.2,2.04 ± 0.21,1.84 ± 0.3
TCTCGT,2.41 ± 2.1,–,–
GTATCA,2.98 ± 1.5,2.13 ± 0.37,2.19 ± 0.47
ACCCCT,2.94 ± 0.95,1.89 ± 0.53,2.17 ± 0.44
AAGGGT,0.872 ± 0.84,–,–
CGCATT,4.66 ± 2,2.95 ± 0.92,2.39 ± 0.24
TCATGA,5.56 ± 2,4.21 ± 1.1,3.2 ± 0.38
TTAACA,1.92 ± 0.24,1.71 ± 0.67,–
CTCTAA,–,6.21 ± 1.1,4.48 ± 1.2
GGCTCT,2.46 ± 0.57,2.02 ± 0.07,2.27 ± 1.5
TGCCGA,4.69 ± 1.9,2.99 ± 1.4,2.99 ± 0.37
AAACAA,2.11 ± 0.75,1.86 ± 0.37,1.51 ± 0.087
TTATAG,4.22 ± 1.9,2.63 ± 0.53,2.25 ± 1.6
TCGGCA,0.743 ± 0.011,0.991 ± 0.43,1.68 ± 0.99

Sequence,relative kcat/Km [1],relative kcat/Km [2],relative kcat/Km [3]
GTCGGC,1.98 ± 1.3,–,–
AGAACC,1.82 ± 0.17,1.82 ± 0.43,1.66 ± 1.1
CGCCTC,3.67 ± 1.4,2.79 ± 1.4,2.29 ± 0.59
TGACTG,0.873 ± 0.55,–,–
AAGGTT,–,–,0.832 ± 0.58
GAATTC,2.35 ± 0.56,1.85 ± 0.052,1.77 ± 0.084
CAAAAA,2.42 ± 0.98,0.985 ± 0.72,1.14 ± 0.13
ACGTTA,2.64 ± 1.2,1.95 ± 0.14,1.52 ± 0.066
GGGGTG,0.488 ± 0.095,–,0.214 ± 0.043
CATAGG,0.858 ± 0.12,–,0.483 ± 0.39
CCTCGC,3.1 ± 1.1,2.32 ± 0.72,2.01 ± 0.37
GTATGC,3.64 ± 0.93,2.59 ± 0.35,2.2 ± 0.71
AAGATA,1.73 ± 0.3,1.3 ± 0.082,2.68 ± 1.4
ATAATA,2.19 ± 1.1,1.65 ± 0.35,1.54 ± 0.73
TCTGTG,1.15 ± 0.22,–,0.301 ± 0.18
GCGGCT,–,–,0.25 ± 0.031
CGCACT,3.04 ± 1.6,1.78 ± 0.54,1.79 ± 0.22
GTGAAG,1.91 ± 0.62,1.04 ± 0.34,1.41 ± 0.83
AGAAGG,0.852 ± 0.022,–,–
GCACGA,1.03 ± 0.068,–,0.937 ± 0.69
TTCCCG,3.15 ± 0.58,1.89 ± 0.23,–
ACTTGT,1.89 ± 1.8,–,0.499 ± 0.1
AGACAG,2.07 ± 0.14,0.766 ± 0.5,–

Sequence,relative kcat/Km [1],relative kcat/Km [2],relative kcat/Km [3]
GGTATA,1.46 ± 0.89,1.08 ± 0.098,0.789 ± 0.27
TCCGGG,0.936 ± 0.57,0.232 ± 0.093,–
CCCGAC,6.49 ± 2.3,4.41 ± 0.51,3.83 ± 0.31
GAGTCC,2.45 ± 0.75,1.51 ± 0.091,1.33 ± 0.69
GTACTT,3 ± 1.2,2.49 ± 0.45,2.05 ± 0.35
TATGAC,5.65 ± 2.8,3.46 ± 0.18,2.5 ± 0.71
GGAGGA,1.57 ± 1,1.36 ± 0.53,–
ATTGCT,0.93 ± 0.35,0.554 ± 0.29,0.546 ± 0.2
AGCCAC,4.97 ± 1.8,3.5 ± 0.98,3.06 ± 0.9
CTACAA,3.29 ± 1.6,2.44 ± 0.77,1.7 ± 0.25
GGCGTT,1.12 ± 0.49,0.792 ± 0.15,–
AGTCAT,6.79 ± 3.2,5 ± 1.1,3.31 ± 1.6
GCCCCA,2.85 ± 0.93,1.87 ± 0.068,2.31 ± 0.65
CGAATT,2.43 ± 1.1,2.27 ± 0.76,1.72 ± 0.48
ATGGAC,0.869 ± 0.56,0.764 ± 0.61,–
TGGCTT,1.28 ± 1.2,1.43 ± 0.2,0.632 ± 0.3
ACCATT,4.27 ± 1.3,2.84 ± 0.28,2.5 ± 1.4
GAGTTT,2.05 ± 0.46,1.28 ± 0.17,1.6 ± 0.65
TCGTTA,3.9 ± 1.4,2.65 ± 0.66,2.56 ± 0.7
CAAGTA,1.44 ± 0.79,1.16 ± 0.49,1.01 ± 0.55
CAATAC,5.19 ± 2.1,4.12 ± 0.85,2.65 ± 0.75
AACTGT,0.608 ± 0.51,0.97 ± 0.59,0.625 ± 0.14

# — the supplement of paper PMC9433436
